PubChem BioAssay (Tox21)
Inconclusive means that the source gave no clear call. Such entries were picked first, then a sample of the others. Entries that show only a call come without a potency. For some of these results: Potencies of inconclusive entries are doubtful fits and often do not repeat. The source made the active and inactive calls. Unless noted, calls follow the shape of the dose curve; as a rule, active = well fitted curve in the direction sought with a large enough effect in the repeat runs; inconclusive = weak or mixed curves; inactive = no such curve, though single readings can be large; an effect the other way counts as inactive or inconclusive.

Assays:
[1] = qHTS assay to identify small molecule agonists of the RXR signaling pathway - cell viability counter screen (AID 1159529); also: nearly all actives have a fitted effect of over 50% in size; also: potency is read from the fitted curve at half-maximal effect
How it was run: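 RXR-alpha-UAS-bla HEK 293T cells in medium with 2% charcoal-stripped FBS were preincubated 5 hr, then exposed to compounds for 16 hr at 37 C. Viability was read as CellTiter-Glo luminescence after 30 min at room temperature.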

[2] = molecular target: Progesterone receptor (Homo sapiens) (UniProt P06401); assay: qHTS assay to identify small molecule antagonists of the progesterone receptor (PR) signaling pathway (AID 1346795; active = well fitted inhibition curve with a large enough effect in the signal ratio in the repeat runs, not every such curve was filed as active; inconclusive = weak or mixed curves; the % refers to the signal ratio); details: PR-UAS-bla HEK293T, beta-lactamase FRET ratio, 16 h; activity change, negative = inhibition: at 92.4 µM (top of the series) unless noted
UniProt P06401, sequence (P06401 whole entry, looked up): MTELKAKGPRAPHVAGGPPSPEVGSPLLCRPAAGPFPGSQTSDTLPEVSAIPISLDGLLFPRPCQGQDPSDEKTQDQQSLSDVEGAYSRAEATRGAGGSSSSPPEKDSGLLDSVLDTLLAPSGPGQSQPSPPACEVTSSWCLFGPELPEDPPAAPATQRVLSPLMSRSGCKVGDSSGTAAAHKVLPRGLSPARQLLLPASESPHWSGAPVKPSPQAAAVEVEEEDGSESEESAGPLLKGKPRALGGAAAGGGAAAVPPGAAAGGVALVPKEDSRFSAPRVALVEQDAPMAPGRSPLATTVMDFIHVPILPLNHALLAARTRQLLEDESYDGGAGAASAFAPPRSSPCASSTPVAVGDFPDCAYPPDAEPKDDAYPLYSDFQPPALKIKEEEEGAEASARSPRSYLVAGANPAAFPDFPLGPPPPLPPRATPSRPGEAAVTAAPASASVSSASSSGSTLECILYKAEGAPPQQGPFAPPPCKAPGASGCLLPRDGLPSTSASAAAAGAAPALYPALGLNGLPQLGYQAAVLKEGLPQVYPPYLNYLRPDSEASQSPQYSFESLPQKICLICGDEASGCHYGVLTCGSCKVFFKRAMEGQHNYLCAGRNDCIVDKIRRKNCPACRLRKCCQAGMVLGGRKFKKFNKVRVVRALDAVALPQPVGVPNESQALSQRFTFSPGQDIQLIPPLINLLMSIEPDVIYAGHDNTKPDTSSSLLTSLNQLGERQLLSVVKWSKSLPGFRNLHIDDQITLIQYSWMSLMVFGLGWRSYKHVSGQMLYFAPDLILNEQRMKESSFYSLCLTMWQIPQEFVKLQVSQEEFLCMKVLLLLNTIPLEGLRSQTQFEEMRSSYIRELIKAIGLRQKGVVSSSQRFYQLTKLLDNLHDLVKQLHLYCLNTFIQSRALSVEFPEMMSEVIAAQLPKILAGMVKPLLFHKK
How it was run: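 PR-UAS-bla HEK293T cells carrying a UAS-driven beta-lactamase reporter were plated in medium with 2% charcoal-stripped FBS and rested 6 hr at 37C. Compounds were added with 1 nM R5020 (final) for 16 hr, then FRET substrate loaded 2 hr at room temperature.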

[3] = molecular target: Cytochrome P450 2D6 (Homo sapiens) (UniProt P10635); assay: Cytochrome P450 Family 2 Subfamily D Member 6 (CYP2D6) small molecule antagonists: luciferase reporter qHTS assay (AID 1671196); also: nearly all actives have a fitted effect of over 50% in size
How it was run: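 Inhibition of CYP2D6 was gauged by loss of luminescence, since light produced tracks the luciferin generated from a proluciferin substrate. A 10 min room-temperature preincubation preceded 1 h NADPH-supported turnover.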

[4] = molecular target: Cytochrome P450 1A2 (Homo sapiens) (UniProt P05177); assay: Cytochrome P450 Family 1 Subfamily A Member 2 (CYP1A2) small molecule antagonists: luciferase reporter qHTS assay (AID 1671199); also: nearly all actives have a fitted effect of over 50% in size; also: potency is read from the fitted curve at half-maximal effect
UniProt P05177, sequence (P05177 whole entry, looked up): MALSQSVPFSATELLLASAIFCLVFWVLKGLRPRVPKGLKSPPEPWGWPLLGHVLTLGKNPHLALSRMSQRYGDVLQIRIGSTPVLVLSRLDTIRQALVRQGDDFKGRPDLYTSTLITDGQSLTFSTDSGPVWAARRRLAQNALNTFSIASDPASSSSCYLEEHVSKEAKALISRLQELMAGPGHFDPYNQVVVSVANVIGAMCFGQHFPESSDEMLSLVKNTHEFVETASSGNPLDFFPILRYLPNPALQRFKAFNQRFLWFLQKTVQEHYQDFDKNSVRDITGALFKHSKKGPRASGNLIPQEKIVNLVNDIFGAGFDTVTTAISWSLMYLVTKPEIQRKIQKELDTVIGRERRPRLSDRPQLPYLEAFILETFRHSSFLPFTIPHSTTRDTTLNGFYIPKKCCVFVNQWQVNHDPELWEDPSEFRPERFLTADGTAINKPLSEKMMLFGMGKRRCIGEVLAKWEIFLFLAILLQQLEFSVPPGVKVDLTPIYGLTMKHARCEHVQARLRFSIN
How it was run: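 Signal from luciferin formed by CYP1A2 from a proluciferin substrate is read as luminescence, expressed in relative luminescence units. Compounds sit with enzyme 10 min, NADPH-driven reaction runs 1 h, all at room temperature.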

[5] = qHTS assay for small molecule disruptors of the mitochondrial membrane potential (AID 720635); details: HepG2 mitochondrial membrane potential, Mito-MPS dye ratio; ratio activity, negative = MMP loss: at 83.2 µM (top of the series) unless noted; also: potency is read from the fitted curve at half-maximal effect
How it was run: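 HepG2 cells exposed to compound 1 hr at 37C, then Mito-MPS dye 30 min. Ratio read of aggregate (540/590 nm) versus monomer (490/535 nm) fluorescence.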

[6] = qHTS assay to identify small molecule antagonists of the thyroid receptor (TR) signaling pathway - cell viability counter screen (AID 743064); details: GH3.TRE-Luc viability, CellTiter-Fluor, 24 h; activity change, negative = cytotoxic: at 70.3 µM (top of the series) unless noted; also: nearly all actives have a fitted effect of over 50% in size
How it was run: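 GH3.TRE-Luc rat pituitary cells carrying a TRE-luciferase reporter were treated with compound plus 1 nM T3 (final) for 23.5 h at 37 °C. Viability was then read in the same wells by CellTiter-Fluor fluorescence after a further 30 min.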

[7] = molecular target: Peroxisome proliferator-activated receptor gamma (Homo sapiens) (UniProt P37231); assay: qHTS assay to identify small molecule antagonists of the peroxisome proliferator-activated receptor gamma (PPARg) signaling pathway (AID 743191; calls by dose curve; also: nearly all actives have a fitted effect of over 30% in size); details: HEK293H PPARg-UAS-bla, beta-lactamase ratio, antagonist, 17 h; ratio activity, negative = inhibition: at 62.6 µM (top of the series) unless noted
UniProt P37231, sequence (P37231 whole entry, looked up): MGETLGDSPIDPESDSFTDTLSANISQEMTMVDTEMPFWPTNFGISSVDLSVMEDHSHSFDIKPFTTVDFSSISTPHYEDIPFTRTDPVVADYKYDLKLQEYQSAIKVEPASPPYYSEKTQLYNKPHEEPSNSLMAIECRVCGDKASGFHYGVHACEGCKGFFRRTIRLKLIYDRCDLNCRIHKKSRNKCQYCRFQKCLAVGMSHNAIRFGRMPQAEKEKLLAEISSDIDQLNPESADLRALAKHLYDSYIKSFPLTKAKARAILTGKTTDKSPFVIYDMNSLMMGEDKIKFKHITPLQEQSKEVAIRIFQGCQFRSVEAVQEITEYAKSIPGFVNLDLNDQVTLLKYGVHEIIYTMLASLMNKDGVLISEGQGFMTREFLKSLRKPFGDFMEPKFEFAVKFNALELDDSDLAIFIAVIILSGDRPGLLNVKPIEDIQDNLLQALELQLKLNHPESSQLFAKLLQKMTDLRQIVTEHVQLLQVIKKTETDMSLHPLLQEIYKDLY
How it was run: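 GeneBLAzer PPARg UAS-bla HEK293H cells, 5 h post-plating, exposed to compounds 17 h at 37C. LiveBLAzer B/G FRET substrate added for 1 h at room temperature; beta-lactamase reporter read by fluorescence intensity.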

[8] = qHTS assay for small molecule agonists of the antioxidant response element (ARE) signaling pathway (AID 743202; active = well fitted activation curve with a large enough effect in the signal ratio in the repeat runs, not every such curve was filed as active; inconclusive = weak or mixed curves, or effect the other way; inactive = no such curve, though single readings can be large or run the other way; the % refers to the signal ratio); details: HepG2 ARE-bla reporter, beta-lactamase FRET, 16 h; activation: at 73.3 µM (top of the series) unless noted
How it was run: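 ARE-bla HepG2 cells (beta-lactamase reporter under the antioxidant response element), plated 5 hours, then exposed to compounds 16 hours at 37 C. LiveBLAzer B/G FRET substrate added for 2 hours at room temperature; fluorescence intensity read.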

[9] = molecular target: Vitamin D3 receptor (Homo sapiens) (UniProt P11473); assay: qHTS assay to identify small molecule antagonists of the vitamin D receptor (VDR) signaling pathway (AID 743223; active = well fitted inhibition curve with a large enough effect in the signal ratio in the repeat runs, not every such curve was filed as active; inconclusive = weak or mixed curves, or effect the other way; inactive = no such curve, though single readings can be large or run the other way; the % refers to the signal ratio; also: potency is read from the fitted curve at half-maximal effect); details: VDR-UAS-bla HEK293T, beta-lactamase FRET ratio, 16 h; activity change, negative = inhibition: at 61 µM (top of the series) unless noted
UniProt P11473, sequence (P11473 whole entry, looked up): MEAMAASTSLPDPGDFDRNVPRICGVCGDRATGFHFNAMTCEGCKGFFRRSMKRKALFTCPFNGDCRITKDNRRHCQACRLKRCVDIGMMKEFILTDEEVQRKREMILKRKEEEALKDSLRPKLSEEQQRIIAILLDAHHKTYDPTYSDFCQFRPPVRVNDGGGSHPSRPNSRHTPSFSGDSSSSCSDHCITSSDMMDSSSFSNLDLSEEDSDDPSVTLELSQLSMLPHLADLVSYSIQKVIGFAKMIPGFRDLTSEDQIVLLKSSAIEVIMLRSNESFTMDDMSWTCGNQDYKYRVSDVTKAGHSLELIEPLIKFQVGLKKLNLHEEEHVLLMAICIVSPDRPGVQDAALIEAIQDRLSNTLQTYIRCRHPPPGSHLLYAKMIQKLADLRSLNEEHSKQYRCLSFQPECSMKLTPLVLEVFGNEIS
How it was run: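 VDR-bla cells were plated, incubated 4 h at 37C, then given compound and 1alpha,25-dihydroxyvitamin D3 (3 nM final). After 16 h at 37C, LiveBLAzer B/G FRET substrate was added for 2 h at room temperature and fluorescence read.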

[10] = molecular target: Cytochrome P450 2C19 (Homo sapiens) (UniProt P33261); assay: Cytochrome P450 Family 2 Subfamily C Member 19 (CYP2C19) small molecule antagonists: luciferase reporter qHTS assay (AID 1671197); also: potency is read from the fitted curve at half-maximal effect; nearly all actives have a fitted effect of over 65% in size
UniProt P33261, sequence (P33261 whole entry, looked up): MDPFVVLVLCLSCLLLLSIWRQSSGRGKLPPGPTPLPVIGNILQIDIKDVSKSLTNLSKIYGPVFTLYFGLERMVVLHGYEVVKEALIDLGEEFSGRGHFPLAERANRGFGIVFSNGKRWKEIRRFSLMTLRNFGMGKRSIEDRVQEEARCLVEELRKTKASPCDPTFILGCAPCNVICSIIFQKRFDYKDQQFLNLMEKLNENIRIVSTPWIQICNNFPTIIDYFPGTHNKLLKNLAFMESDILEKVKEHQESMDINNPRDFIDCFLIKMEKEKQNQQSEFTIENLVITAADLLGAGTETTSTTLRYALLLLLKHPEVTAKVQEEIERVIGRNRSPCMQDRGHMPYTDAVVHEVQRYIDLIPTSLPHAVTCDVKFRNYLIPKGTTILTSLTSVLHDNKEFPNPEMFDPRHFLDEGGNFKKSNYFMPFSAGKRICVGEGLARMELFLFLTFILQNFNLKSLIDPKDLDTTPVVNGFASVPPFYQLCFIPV
How it was run: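 Enzyme-substrate mix with proluciferin substrate (P450-Glo CYP2C19 system) preincubated with compounds 10 min at room temperature; NADPH regeneration solution added, 37C for 1 h; detection reagent stops reaction, luminescence read after 20 min. Ketoconazole positive control.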

[11] = qHTS assay for identifying genotoxic compounds that show differential cytotoxicity against isogenic chicken DT40 cell lines with known DNA damage response pathways - wild type cell line (AID 743012); details: DT40 wild type chicken cells viability, CellTiter-Glo, 40 h; activity change, negative = cytotoxicity: at 68.4 µM (top of the series) unless noted; also: potency is read from the fitted curve at half-maximal effect; nearly all actives have a fitted effect of over 60% in size
How it was run: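 Quantitative HTS on parental DT40 cells: 40 h compound treatment at 37 C/5% CO2, with viability then determined by CellTiter-Glo luminescence. Values serve as the DNA repair-proficient reference for differential cytotoxicity.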

[12] = qHTS assay for identifying genotoxic compounds that show differential cytotoxicity against isogenic chicken DT40 cell lines with known DNA damage response pathways - Rev3 mutant cell line (AID 743014); details: chicken DT40 Rev3-/- viability, CellTiter-Glo, 40 h; activity, negative = cytotoxicity: at 68.4 µM (top of the series) unless noted; also: nearly all actives have a fitted effect of over 55% in size
[13] = qHTS assay to identify small molecule antagonists of the progesterone receptor (PR) signaling pathway - cell viability counter screen (AID 1346798)
How it was run: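 PR-UAS-bla HEK293T cells in medium with 2% charcoal-stripped FBS were treated with compounds plus R5020 for 16 hr at 37C. Cell viability was then read by CellTiter-Glo luminescence after 30 min at room temperature in the same wells.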

[14] = molecular target: Cytochrome P450 2C9 (Homo sapiens) (UniProt P11712); assay: Cytochrome P450 Family 2 Subfamily C Member 9 (CYP2C9) small molecule antagonists: luciferase reporter qHTS assay (AID 1671198); also: nearly all actives have a fitted effect of over 50% in size; also: potency is read from the fitted curve at half-maximal effect
UniProt P11712, sequence (P11712 whole entry, looked up): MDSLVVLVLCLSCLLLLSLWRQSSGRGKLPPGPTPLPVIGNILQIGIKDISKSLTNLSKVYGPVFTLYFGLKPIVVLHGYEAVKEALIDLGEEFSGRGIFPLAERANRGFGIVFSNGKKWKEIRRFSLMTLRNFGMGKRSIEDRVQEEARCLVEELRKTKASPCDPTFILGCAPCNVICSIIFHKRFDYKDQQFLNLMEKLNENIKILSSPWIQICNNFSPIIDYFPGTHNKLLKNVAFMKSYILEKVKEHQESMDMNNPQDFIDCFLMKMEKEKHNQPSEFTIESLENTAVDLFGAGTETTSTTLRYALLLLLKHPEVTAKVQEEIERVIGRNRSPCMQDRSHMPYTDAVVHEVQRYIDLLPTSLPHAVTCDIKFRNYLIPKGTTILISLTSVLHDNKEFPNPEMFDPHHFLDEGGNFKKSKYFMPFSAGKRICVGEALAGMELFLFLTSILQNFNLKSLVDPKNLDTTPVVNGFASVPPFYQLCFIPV
How it was run: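 P450-Glo proluciferin substrate with CYP2C9 enzyme; 10 min RT preincubation, then NADPH regeneration 1 h at 37C; luciferin detection reagent 20 min RT, luminescence in relative luminescence units.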

[15] = molecular target: Estrogen receptor beta (Homo sapiens) (UniProt Q92731); assay: qHTS assay to identify small molecule antagonists of the estrogen receptor beta (ER-beta) signaling pathway (AID 1259378; active = well fitted inhibition curve with a large enough effect in the signal ratio in the repeat runs, not every such curve was filed as active; inconclusive = weak or mixed curves, or effect the other way; inactive = no such curve, though single readings can be large or run the other way; the % refers to the signal ratio); details: ER-beta-UAS-bla HEK293T, beta-lactamase FRET ratio, 16 h; activity, negative = inhibition: at 92.4 µM (top of the series) unless noted
UniProt Q92731, sequence (Q92731 whole entry, looked up): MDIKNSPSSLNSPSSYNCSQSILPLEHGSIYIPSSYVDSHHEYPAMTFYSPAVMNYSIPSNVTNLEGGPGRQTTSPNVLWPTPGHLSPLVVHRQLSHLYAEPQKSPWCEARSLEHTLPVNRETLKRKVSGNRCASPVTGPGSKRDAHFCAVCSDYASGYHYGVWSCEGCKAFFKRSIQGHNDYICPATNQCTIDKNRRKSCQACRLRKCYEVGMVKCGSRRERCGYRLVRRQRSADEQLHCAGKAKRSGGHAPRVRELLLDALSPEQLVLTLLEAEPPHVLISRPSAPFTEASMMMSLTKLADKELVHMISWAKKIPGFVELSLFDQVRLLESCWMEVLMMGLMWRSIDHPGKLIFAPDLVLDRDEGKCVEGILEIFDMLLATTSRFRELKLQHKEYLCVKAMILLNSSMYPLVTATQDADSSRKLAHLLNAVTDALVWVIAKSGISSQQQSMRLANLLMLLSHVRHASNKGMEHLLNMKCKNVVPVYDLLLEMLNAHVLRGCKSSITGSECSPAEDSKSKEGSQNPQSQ
How it was run: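 ER-beta-UAS-bla HEK293T cells in 2% charcoal-stripped FBS medium treated with compound plus 1nM final 17-beta-estradiol for 16 hr at 37C. Beta-lactamase reporter read by FRET substrate fluorescence after 2 hours at room temperature.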

[16] = qHTS assay to identify small molecule agonists of the progesterone receptor (PR) signaling pathway - cell viability counter screen (AID 1346799; calls by dose curve; also: nearly all actives have a fitted effect of over 45% in size)
How it was run: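 PR-UAS-bla HEK293T cells, 3,000 per well in medium with 2% charcoal-stripped FBS, were preincubated 6 hr at 37C, then exposed to compounds for 16 hr; viability was read as CellTiter-Glo luminescence after 30 min at room temperature.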

[17] = molecular target: Glucocorticoid receptor (Homo sapiens) (UniProt P04150); assay: qHTS assay to identify small molecule antagonists of the glucocorticoid receptor (GR) signaling pathway (AID 720692; active = well fitted inhibition curve with a large enough effect in the signal ratio in the repeat runs, not every such curve was filed as active; inconclusive = weak or mixed curves, or effect the other way; inactive = no such curve, though single readings can be large or run the other way; the % refers to the signal ratio); details: GR-bla HeLa, beta-lactamase FRET ratio, dexamethasone-stimulated, 18 h; activity change, negative = inhibition: at 58.5 µM (top of the series) unless noted
UniProt P04150, sequence (P04150 whole entry, looked up): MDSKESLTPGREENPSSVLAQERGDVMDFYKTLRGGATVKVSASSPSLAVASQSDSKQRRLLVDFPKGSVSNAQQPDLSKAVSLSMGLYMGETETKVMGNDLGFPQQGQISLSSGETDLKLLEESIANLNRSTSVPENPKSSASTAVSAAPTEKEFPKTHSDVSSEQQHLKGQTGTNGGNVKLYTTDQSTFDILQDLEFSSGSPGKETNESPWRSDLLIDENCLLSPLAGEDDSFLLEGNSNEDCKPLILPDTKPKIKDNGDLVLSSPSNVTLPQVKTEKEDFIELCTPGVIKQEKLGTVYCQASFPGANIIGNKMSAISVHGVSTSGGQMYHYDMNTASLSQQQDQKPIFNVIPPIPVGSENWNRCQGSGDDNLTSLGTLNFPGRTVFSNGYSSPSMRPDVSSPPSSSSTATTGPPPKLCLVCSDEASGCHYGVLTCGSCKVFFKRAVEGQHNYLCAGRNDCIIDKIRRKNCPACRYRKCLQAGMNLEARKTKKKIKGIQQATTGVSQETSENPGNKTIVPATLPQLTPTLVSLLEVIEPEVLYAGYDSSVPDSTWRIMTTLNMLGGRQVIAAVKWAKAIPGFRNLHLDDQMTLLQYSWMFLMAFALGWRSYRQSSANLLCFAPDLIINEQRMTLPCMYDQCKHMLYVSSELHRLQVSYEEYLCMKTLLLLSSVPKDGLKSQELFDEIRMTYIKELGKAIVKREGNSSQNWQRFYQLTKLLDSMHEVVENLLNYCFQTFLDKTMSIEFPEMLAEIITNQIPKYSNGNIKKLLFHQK
How it was run: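 Fluorescence from cleaved LiveBLAzer B/G FRET substrate reports GRE-driven beta-lactamase in HeLa cells; compounds are tested against 5 nM dexamethasone (final) over 18 h at 37 C, substrate incubation 2 h at room temperature.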

[18] = qHTS assay to identify small molecule antagonists of the sonic hedgehog signaling (Shh) pathway (AID 1259369; calls by dose curve; also: potency is read from the fitted curve at half-maximal effect; nearly all actives have a fitted effect of over 45% in size)
How it was run: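 Screening used 3T3Gli1-Luc cells at 2,000 per well, compounds delivered in DMSO, and conditioned medium as agonist stimulus; plates incubated 24hr at 37 C and 5% CO2 before a 30min luciferase step.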
Tags tell the direction and shape of the fitted curve or compound fluorescence and quenching.

CC1=CC[C@@H](C(C)(C)O)CC1
Potency [1]: inactive | activity change, negative = inhibition [2]: inconclusive: 0.675% | Potency [3]: inactive | Potency [4]: inactive

COc1ccc(Cl)cc1C
Potency [5]: inactive | Potency [6]: inactive | ratio activity, negative = inhibition [7]: inconclusive: 22.6% [at 81.1 µM] | Potency [8]: inactive | Potency [9]: inconclusive: 2.61 µM [activator, full curve, poor fit] | Potency [1]: inactive | Potency [10]: inconclusive: 84.7 µM [inhibitor, single point]

C=C(C)C(=O)NCCC[N+](C)(C)C
Potency [5]: inactive | Potency [11]: inconclusive: 68.6 µM [rising, single point] | Potency [12]: inactive | Potency [6]: inactive | Potency [7]: inactive | Potency [8]: inactive | Potency [1]: inactive | Potency [2]: inactive | Potency [13]: inconclusive: 1.37 µM [cytotoxic, single point] | Potency [10]: inconclusive: 89.4 µM [inhibitor, single point] | Potency [14]: inactive | Potency [4]: inconclusive: 44.8 µM [inhibitor, partial curve]

Clc1cccnc1
Potency [1]: inactive | activity, negative = inhibition [15]: inconclusive: -28.5% | Potency [2]: inactive | Potency [14]: inactive | Potency [4]: active: 35.6 µM

CC(=O)CC(C)=O
ratio activity, negative = MMP loss [5]: inconclusive: -14.2% [at 95.3 µM] | ratio activity, negative = inhibition [7]: inconclusive: -6.79% [at 81.1 µM] | Potency [8]: inactive | Potency [1]: inactive

CN/C(=C\[N+](=O)[O-])NCCSCc1csc(CN(C)C)n1
Potency [5]: inconclusive: 0.545 µM [inhibitor, single point] | Potency [7]: inactive | Potency [8]: inactive | Potency [1]: inconclusive: 11 µM [cytotoxic, single point] | Potency [16]: inactive

NS(=O)(=O)c1cc2c(cc1C(F)(F)F)NCNS2(=O)=O
activity change, negative = inhibition [17]: inconclusive: -5.6% [at 27 µM] | Potency [12]: inactive | ratio activity, negative = inhibition [7]: inconclusive: 8.15% | activation [8]: inconclusive: 8.76% | Potency [1]: inactive | Potency [2]: inactive

CCCCCCCCCCCCI
Potency [8]: inactive | Potency [1]: inconclusive: 3.1 µM [cytotoxic, partial curve, poor fit] | Potency [18]: inconclusive: 43.5 µM [inhibitor, partial curve, poor fit] | Potency [10]: inconclusive: 89.8 µM [inhibitor, single point] | Potency [14]: inconclusive: 40.1 µM [inhibitor, partial curve] | Potency [4]: inconclusive: 80 µM [inhibitor, partial curve, poor fit]
